The source gives no read counts; variants with many changes may rest on few reads.
B1: LINE1-mini (parent)
chain: GGCAGAGCUCAACACAGCGUGGCAAAGUGGCUGUGGCUAGACUGCC

Variants of: B1
Experiment: self-cleavage, relative activity (ratio to wild type); higher = more cleavage; in vitro, sequencing; the parent is a self-cleaving ribozyme

Variant	self-cleavage
GGCAGAGCGCAACCCAACGUGGCAAAGUGGCUGGGGCUAGACUGCA	0.01
GGCAGAGCGCAAAACAGCGUGGUAAAGGGGCUGUGGCCAGACUGCC	0.1
GGCAGAGCGUAACAGAGCGUGGCAAAGUGGCUGUGGCUAGACUGCC	0.04
GGCAGAGCGCAACAAAGCGUGGCAAAGUGGCUGUGGCUAGAGUGCC	0.09
GGCAGAGCGCAACAAAGCAUGGCAUAGUGGCUGUGGCUAGACUGCC	0.26
GGCAGAGCGCAACACAGCGUGGCAGAGUGCCUGUGGCUAGACUGCC	0.03
GGCAGAGCGAAACAGACCGUGGCAAAGUGGCUGUGGCUAGACUGCC	0.02
GGCAGAGCGCAGAACAGCGUGGCAAAGUGGCUUUGGCUAGACUGCC	0
GGCAGAGCGCAACACAGCGUGGCAAUGUGGCUGUGGCUAGACUGAC	0.05
GGCAGAGCGAUACACAGCGUGGCGAAGUGGCUGUUGCUAUACAGCC	0.01
GGCAGAGCGCAAUACAGCAUGGCAAAGUGGCUGUGGCUAAACUGCC	0.1
GGCAGAGCGCAAUACAGCGGGGCAAAGUGGCUGUAGCUAGACUGCC	0.06
GGCAGAGCGCAACACAGCGUGGCAAUGUGGCCGUGGCUAGACUGCC	0.04
GGCAGAGCGUAACACAGCGUGGCAAAGUGGCUUUGGCUAGACUGCC	0.06
GGCAGAGCGCUACACAGCGUGGCAAAGUGGCUGUGGCUAAACUGCC	0.01
GGCAGAGCGCUACACAGCGAGGCAAAGUGGCUGUGGCUAGAUUGCC	0.02
GGCAGAGCGCUACACAACGUGGCAAUGUGGCUGUGGCUAGACUGCC	0.02
GGCAGAGCGCAACGCAGCCUGGCACAGCAGCUGGGGCCAAACUGCC	0.06
GGCAGAGCGCACCACCGCGUGGCAAAGUGGCUGUGGCUAGCGUGCC	0.01

Variant	self-cleavage
GGCAGAGCGGAGCACAUCGUGGCGAAGUUGCUGUGGCUAGACUGCC	0.01
GGCAGAGCGCUACACAGCGUGGCAAAGUGACUGUGGCUAGACUGCC	0.03
GGCAGAGCGCAACAAAGCGUGGCAAAGUGGCUGUGGAUAGACUGCC	0.29
GGCAGAGCGAAACGCAGCGUGGCAAAGUGGCUGUGGCUAGACUGCC	0.01
GGCAGAGCGCAACACAGCGUGGCUAACUGGCUGUGGCUAGACUGCG	0.07
GGCAGAGCGCAACACGGCGUGGCAAAGUGGCUGUGGCUACACUGCC	0.08
GGCAGAGCGCACCCAAGCGUGGCAAAGUGGCUGUGCCUAUACUGCC	0.06
GGCAGAGCGCAGCACAGCCUGACAAAGUGGCUGUGGCUAGACUGCC	0.03
GGCAGAGCGAAACACAGCGUGACAAAGUAGCUGUGGCUAGACUGCC	0
GGCAGAGCGCAACACCGCGUGGUAAAUUGGCUGUGGCUACACUGCC	0.02
GGCAGAGCGCAAUACGGCGAGGCAAGGUGGCUGUGGAUAGACUGCC	0.17
GGCAGAGCGCAACGCAGCGUGGCAAAGUGCCUGCGGCUAGACUGCU	0.07
GGCAGAGCGCAACACAGCGUGGCAAGGUGGCUGUGGCUAGUCUGCG	0
GGCAGAGCGCAACACUGCGUGGCAAAGUGCCUGUGGCUAGACACCG	0.01
GGCAGAGCGCUACACAGCGUGGCAAAGUGGCUGUGGCUAGACUUCC	0.03
GGCAGAGCGGAACAUAGAGUGGCAAAGUGGUUGUCGCUAGACUGCC	0.01
GGCAGAGCGUAACACAGCGUGCAAAAGUGGCUAUGGCUAGACUGGC	0.02
GGCAGAGCGCAACUCAACGUGGCAAAGUGGCUGUGGCUAGAAUGCC	0.31
GGCAGAGCGCAUAACAGCGUGGCAAAGUAGCUGUGGCUCGACUGCC	0.11

Variant	self-cleavage
GGCAGAGCGCUCCACAGCGUGGCAAAGUGGCUGUGGCUAGACUACC	0
GGCAGAGCGCAACACAGCGUGGCAAGGUGGGUGUGGCUAGACUGCC	0.04
GGCAGAGCGCAAAACUCAGUGGCAAAGUGGCUAUGCCUAGACUGCC	0.01
GGCAGAGCGCGACACAGCGUGGCAAAGUGGCUCUGGCUAGACUGCC	0.03
GGCAGAGCGCAACACAGCGUGGCAAGGUGGUUGAGGCUAGACUGCC	0.09
GGCAGAGCGCAACCCAGCGUGGCAAAGUGGCUGUGGCUAGACUGAC	0.01
GGCAGAGCGCUACACAGCGCGUCAAAGUGGCUGUGGCUUGACUGCC	0
GGCAGAGCGCAACACAGCGUGGCACAGGGGCUGUGGCUAGCCUGCC	0.07
GGCAGAGCGUAACACAGCGUGGCAAGGUGGCUGUGGCUCGACAGCC	0.01
GGCAGAGCGCAACACAGCGUGGCAAUAUGGCUGUGGCUAGACUGCC	0.04
GGCAGAGCGCAACACAGCGUGGCACAGUGGCUGUGGUUAGACUGCC	0.05
GGCAGAGCGCAACGGAGGGUGACAAAGUGGCUGUGCCUAGACUGCC	0.02
GGCAGAGCGCAACCCAGCGUGGCUAAGUGGCUGUGGCUAGACUGCC	0.07
GGCAGAGCGCAAAACAGCGCGGCAAAGUGGCUGUGGCUAGACUGCU	0.03
GGCAGAGCGGAACACAGCGUGGCAAAGUGGGUGUGGCUAGACUGCC	0.01
GGCAGAGCGCAACGCAGCGUGGCAAAGUGGCUGUGGCUUGACAGCC	0.02
GGCAGAGCGCAGCACAGCGUGGCAAAGUGGCUGCGGCUAGACUGCC	0.05
GGCAGAGCGCAACAAAGCGUUGCAAUGUGGCUGUGGCUAGACUGCC	0.08

Source: the RNAGym collection of RNA variant scans (doi:10.7554/elife.90254)
